The values below come from publication PMC4242493.

This is one part of the list. The list includes weakly bound sequences.

This test concerns the target MaxL homodimer (UniProt P61244). As to the kind of experiment: universal protein-binding microarray (PBM). To be noted: PBS-based mixture, 10 nM His-tagged protein dimer, 2% milk, 200 ng/uL BSA, 50 ng/uL salmon testes DNA, 0.02% TX-100; detection with Alexa 488 anti-His …; high values mean tight binding; most listed sequences are background and not binding sites; double strand, one strand shown.
Sequence of UniProt P61244 (P61244 whole entry): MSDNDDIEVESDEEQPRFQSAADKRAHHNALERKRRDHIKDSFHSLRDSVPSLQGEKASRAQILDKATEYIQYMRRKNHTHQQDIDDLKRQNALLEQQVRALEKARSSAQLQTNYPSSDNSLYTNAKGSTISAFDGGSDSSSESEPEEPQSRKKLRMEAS
For TATAACCA, the binding signal (normalized occupancy) came to 0.087.
For CGCGCTAG the value was 0.0735; for CATGTCTC, 0.0933; for CAATCATC, 0.0819.
As to ACTATAAG, the binding signal (normalized occupancy) was determined as 0.0855.
For GAGTTCGC, the binding signal (normalized occupancy) stood at 0.0757.
Consider GGCTTTCA, for which the binding signal (normalized occupancy) was 0.0757.
In the case of AATTCTCA it was 0.0751; in that of CGTACAAG, 0.0756.
In the case of GCCTAACA it was 0.0769; in that of CTAGATTC, 0.0781.
For AGGGCGGA the value was 0.0667.
As to CTTCTACA, the binding signal (normalized occupancy) was 0.0795.
For CGCGCCCC the value was 0.0717.
For ACGTGTGA the value was 0.105; for CTCCTCTC, 0.0689.
ACCTACTC: the binding signal (normalized occupancy) worked out at 0.0755.
In the case of GACCTTAA it was 0.0751.
For ATTTAAAG the value was 0.071; for ATCACCGG, 0.077; for AGTACGTG, 0.0845.
For GGAGACCA the value was 0.0745; for TAGGAAGA, 0.0708.
On to CTAGGTAC, for which the binding signal (normalized occupancy) was determined as 0.0728.
For ATCTTTAC the value was 0.0755; for CACACTAC, 0.0839; for AGAAACGC, 0.0715.
Turning to AAGAAGGT, the binding signal (normalized occupancy) stood at 0.0733.
In the case of GGGTAGCA it was 0.0763.
For ACGATTTA, the binding signal (normalized occupancy) stood at 0.0733.
For AGTTTCCC the value was 0.0693.
For the sequence GCCCCTTA, the binding signal (normalized occupancy) was 0.073.
As for TCCTGAGA, the binding signal (normalized occupancy) was 0.0702.
Turning to AAACTACC, the binding signal (normalized occupancy) came to 0.0713.
For AATAATTA the value was 0.0764; for TAATGACA, 0.0798; for CGTCCGAG, 0.0695.
For ACCGTTAG the value was 0.0758; for AAATCAAA, 0.0712; for AGACATAG, 0.0766.
For the sequence CAGTGCGG, the binding signal (normalized occupancy) stood at 0.0659.
For GATTTTTA the value was 0.0759; for CACTCTGC, 0.0776.
In the case of ACCCATAG it was 0.0814; in that of AGCGCAAG, 0.0688.
Regarding AGTAATAC, the binding signal (normalized occupancy) was found to be 0.0749.
Regarding AGCTGCCT, the binding signal (normalized occupancy) was 0.0684.
For GCGGTTAC, the binding signal (normalized occupancy) amounted to 0.0741.
With CAGCTTCC, the binding signal (normalized occupancy) was 0.0716.
In the case of GGGGTACA it was 0.0806; in that of GCTGTATA, 0.083; in that of ACCCAGCC, 0.0724.
In the case of CAGATAAC it was 0.0792; in that of GATTCCTA, 0.0857; in that of GAGGCTGA, 0.0724.
For ACATCTAC the value was 0.0773; for ATATCTGC, 0.0757; for CTTAGATC, 0.0787.
With ATCCGGTA, the binding signal (normalized occupancy) stood at 0.0792.
In the case of CCCTGGTA it was 0.0757.
Take CATATTTA: the binding signal (normalized occupancy) came to 0.0818.
For the sequence CTTATATC, the binding signal (normalized occupancy) was 0.0785.
As to CATTTGAA, the binding signal (normalized occupancy) is 0.0763.
CACACCCC: the binding signal (normalized occupancy) is 0.0902.
On to CCGCTTAC, for which the binding signal (normalized occupancy) came out at 0.0724.
In the case of ATGCAACC it was 0.0825.
For the sequence ATTCCTCC, the binding signal (normalized occupancy) was 0.0777.
Regarding GAGTTGGA, the binding signal (normalized occupancy) came out at 0.0705.
For CGGTCTAC the value was 0.0717; for CGTGCGAC, 0.0878; for AAGGACAT, 0.0795.
In the case of TTCAAAAA it was 0.0747; in that of ACCCTCGG, 0.0677.
In the case of CGTCATGA it was 0.0825; in that of TGCTTCCA, 0.0807.
As to AGCTCAAG, the binding signal (normalized occupancy) was 0.0672.
As to CGAACAAC, the binding signal (normalized occupancy) is 0.077.
For CTGAACTA the value was 0.0705; for CATTAATC, 0.0784; for ACTGTCGC, 0.0727.
In the case of CGACCCCC, the binding signal (normalized occupancy) stood at 0.0803.
For AATCCACA the value was 0.0813; for AAACTGGT, 0.0753; for ACCGTTGG, 0.0736.
On to AATCCGAC, for which the binding signal (normalized occupancy) is 0.0705.
With GTGGTAAC, the binding signal (normalized occupancy) came to 0.0837.
For AGAAGCCT, the binding signal (normalized occupancy) turned out to be 0.0722.
In the case of ACAAGGTC it was 0.0805.
For GATAGCAC the value was 0.0804; for CTCCTTTA, 0.0648; for GAGTCCAC, 0.0828.
For GACTAACA the value was 0.0705; for ATTTGGCA, 0.0721; for CCCAACGG, 0.0681.
For CTGCCTTC, the binding signal (normalized occupancy) was found to be 0.0681.
For AACTATCA the value was 0.0785; for AGTCGAAT, 0.0707.
For GGCTGTAA the value was 0.0715; for GTAAGAGA, 0.0798.
In the case of CCCTGCGG it was 0.0745; in that of ACGGCTAG, 0.0706.
Regarding GAGTATAC, the binding signal (normalized occupancy) came out at 0.0758.
In the case of CGGAGAGA it was 0.0713; in that of CTTAGGAC, 0.0739.
As for CTCTACAC, the binding signal (normalized occupancy) was determined as 0.0757.
For GATTAACA the value was 0.0793; for GAAGTAGC, 0.0734; for ACCTAGGC, 0.0711.
With AGTGGAAG, the binding signal (normalized occupancy) was determined as 0.0706.
